Results published in PubChem BioAssay AID686978 (National Center for Advancing Translational Sciences (NCATS), 2013).
Where “and” joins values, the source holds several entries; their conditions need not be identical. Identical values can stand only once. About 64,000 (15%) of roughly 420,000 compounds were called active. The shares of active, inactive and inconclusive entries below differ from those in the screen. The call rests on the fitted dose curve; in most records, active means well fitted inhibition curve with a large enough effect; inconclusive means small, poorly fitted or top-dose-only effect; inactive means flat fitted curve, though single readings scatter. A potency beside an inconclusive call is a rough fit, not a confirmed value.

Assay: qHTS for Inhibitors of human tyrosyl-DNA phosphodiesterase 1 (TDP1): qHTS in cells in absence of CPT; further: nearly all actives have a fitted effect of over 55% in size
Settings: DT40 Tdp1-/- hTDP1 cells, no CPT, ATP luminescence, 48 h; activity change, negative = growth inhibition: at 46.2 µM (top of the series)
Outline: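 Stably hTDP1-transfected Tdp1-null chicken DT40 cells were treated with library compounds minus camptothecin and grown for at least 48 hr at 37 °C, after which cellular ATP was quantified by luminescence.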
On the % scale 0 is the no-effect control and ±100 the full control effect; potency means the concentration at half of the fitted maximal effect; tags describe the fitted curve by direction and shape.

Row | Compound | Potency | activity change, negative = growth inhibition
1 | COc1ccc(C(=O)NC(=S)N2CCN(c3ccccc3O)CC2)cc1 | inconclusive: 29.1 µM [inhibitor, single point] | 
2 | COc1cccc(Cn2c(=O)c(-c3ccc(Cl)cc3)nc3cncnc32)c1 | inconclusive: 25.9 µM [inhibitor, single point] | 
3 | COc1ccc(NC(=O)c2cccc(NC(=O)C(C)C)c2)c([N+](=O)[O-])c1 | active: 16.4 µM | 
4 | Cc1ccc(NC(=O)CSc2ccc(C(N)=O)cc2[N+](=O)[O-])cc1 | inconclusive: 23.1 µM [inhibitor, partial curve, poor fit] | 
5 | COc1ccccc1/C=C/C(=O)N1CCCC1 | inconclusive: 8.2 µM [inhibitor, partial curve] | 
6 | Nc1sccc1C(=O)c1ccccc1 |  | inconclusive: -36.6% [inhibitor]
7 | CC(C)c1cc(C(=O)N2CCCC(Nc3ccc(F)cc3)C2)n[nH]1 (stereo not given) | inconclusive: 29.1 µM [inhibitor, single point] | 
8 | CC(Oc1ccc(Cl)cc1)C(=O)Nc1nccs1 (stereo not given) | inconclusive: 20.6 µM [inhibitor, single point] | 
9 | O=S(=O)(Nc1cccnc1)c1ccc(Cl)cc1 |  | inactive: -5.78%
10 | COc1ccc(CCNC(=O)Nc2ccc3c(c2)OCO3)cc1OC | inconclusive: 29.1 µM [inhibitor, single point] | 
11 | O=C(NN1C(=O)/C(=C/C=C/c2ccccc2)SC1=S)c1ccncc1 |  | inactive: -29.1%
12 | COc1ccc(C(=O)C[n+]2ccc3c(c2)nnn3-c2ccccc2)cc1 | inconclusive: 18.4 µM [inhibitor, partial curve] | 
13 | NS(=O)(=O)c1ccc(-c2ccc(/C=C3\SC(=O)NC3=O)o2)cc1 | inconclusive: 10.3 µM [inhibitor, single point] | 
14 | COc1cc(NC(=O)c2cccnc2Sc2ccc(Cl)cc2)cc(OC)c1OC | inconclusive: 14.6 µM [inhibitor, partial curve] | 
15 | CCN(CC)c1ccc(NC(=O)CN2CCN(CC(=O)Nc3ccccc3OC)CC2)cc1 | inconclusive: 29.1 µM [inhibitor, single point] | 
16 | CC(=O)NC1=C(N(C)C2CCS(=O)(=O)C2)C(=O)c2ccccc2C1=O (stereo not given) | active: 9.2 µM | 
17 | CCO[C@@H]1OC(C(=O)N2CCOCC2)=C[C@H](c2ccc(Br)cc2)[C@H]1CCCO | inconclusive: 23.1 µM [inhibitor, single point] | 
18 | COc1cc(CN2c3ccc(Br)cc3C(=O)CS2(=O)=O)cc(OC)c1 | inconclusive: 28.2 µM [inhibitor, single point] | 
19 | COc1ccccc1C(=O)NCC1(N2CCN(C)CC2)CCCCC1 |  | inactive: -6.47%
20 | O=C(O)CCCn1cc(NC(=O)c2cc(F)c(F)cc2Cl)cn1 | active: 23.1 µM | 
21 | Cc1ccc(S(=O)(=O)/C(=C/Cl)NC(=O)c2ccccc2)cc1 | active: 14.6 µM | 
22 | O=c1c2ccccc2nc(SCc2nc3ccccc3s2)n1CCCO | inconclusive: 18.4 µM [inhibitor, single point] | 
23 | OC[C@@H]1CN(Cc2ccc(-c3ccccc3)cc2)C[C@H](n2cnc3c(NCc4ccncc4)ncnc32)O1 | active: 3.26 µM | 
24 | CCOC(=O)c1c(C)[nH]c(C(=O)C(C)OC(=O)c2ccc(NC(=O)CC#N)cc2)c1C (stereo not given) | inconclusive: 29.1 µM [inhibitor, single point] | 

Row | Compound | Potency | activity change, negative = growth inhibition
25 | CC(C)CSC1=NSC2=NC(=O)/C(=C\c3cccs3)C(=N)N12 | active: 20.6 µM | 
26 | Cc1ccccc1Nc1cc(C(=O)NC2CCCCC2)c2ccccc2n1 | active: 20.6 µM | 
27 | Fc1ccc(Nc2ncnc3c2nc2n3CCCC2)cc1 | inconclusive: 29.1 µM [inhibitor, single point] | 
28 | Cc1c(NC(=O)c2ccccc2)cc(C(C)C)c(O)c1S(=O)(=O)c1ccc(Cl)cc1 | inconclusive: 25.9 µM [inhibitor, single point] | 
29 | Cc1cccc(CN2CCSCC2)c1 |  | inactive: 20.5%
30 | O=C(CCNC(=O)C1CCN(S(=O)(=O)c2ccc(F)cc2)CC1)NCCc1ccc(Cl)cc1 | inconclusive: 25.9 µM [inhibitor, single point] | 
31 | C=CCn1c(SCc2ccc(C#N)cc2)nnc1-c1cccc(OC)c1 | inconclusive: 29.1 µM [inhibitor, single point] | 
32 | CC(C)C(=O)Nc1cccc(-c2csc(-c3ccccc3)n2)c1 | inconclusive: 29.1 µM [inhibitor, single point] | 
33 | Cc1ccc(C)c(N(C)C(=O)c2cc3c(=O)[nH]c4ccc(C)cc4c3s2)c1 | active: 4.11 µM | 
34 | Cc1ccc(CC(=O)Nc2ccc(S(=O)(=O)N3CCOCC3)cc2)cc1 |  | inactive: -15.3%
35 | COc1ccc(C(=O)NCCC2=CCCCC2)cc1 |  | inconclusive: -36.7% [inhibitor]
36 | O=C(N/N=C/c1ccncc1)c1cc2c(ccc3ccccc32)o1 |  | inactive: -7.4%
37 | O=C(CN1CCCCC1)NCCNc1ccc(C(F)(F)F)cc1[N+](=O)[O-] | inconclusive: 16.4 µM [inhibitor, partial curve] | 
38 | Cc1ccc(C(=O)Nc2ccc3c(c2)OCCO3)o1 | inconclusive: 11.6 µM [inhibitor, partial curve] | 
39 | O=C1CC(NS(=O)(=O)c2ccc([N+](=O)[O-])cc2)CN1c1ccc2c(c1)OCCO2 (stereo not given) |  | inactive: -17.4%
40 | CCCCNC(=NCc1cccc(C(F)(F)F)c1)Nc1ccccc1 | active: 10.3 µM | 
41 | COc1ccc(CNC(=O)c2ccc(-n3cncn3)c3ccoc23)cc1OC | inconclusive: 16.4 µM [inhibitor, single point] | 
42 | Clc1ccc(NNc2ccnc3cc(Cl)ccc23)cc1 | inconclusive: 25.9 µM [inhibitor, single point] | 
43 | CCN(CC)S(=O)(=O)c1ccc(C)c(N=C=S)c1 | inconclusive: 23.1 µM [inhibitor, single point] | 
44 | COc1ccc(CCNC(=O)C23CN(Cc4ccccc4)CC2C(c2cccc([N+](=O)[O-])c2)=NO3)cc1 (stereo not given) |  | inconclusive: -35.1% [inhibitor]
45 | CC1(C)C(=O)Nc2ccccc2N1C(=O)COC(=O)Cn1cnc2ccccc2c1=O |  | inactive: -10.5%
46 | CN(Cc1nc(-c2ccc(Cl)cc2)no1)C(=O)c1ccc2c(c1)OCO2 |  | inactive: -22.3%
47 | Cc1ccc(CCNc2ncnc3onc(C)c23)cc1 | active: 0.82 µM | 
48 | CN(C)c1ccc(/C=C2/NC(=O)NC2=O)cc1 | inconclusive: 14.6 µM [inhibitor, partial curve, poor fit] | 

Row | Compound | Potency | activity change, negative = growth inhibition
49 | CCOc1ccc(S(=O)(=O)N2CCCCC2)cc1NC(=O)CSCc1c(C)noc1C | inconclusive: 20.6 µM [inhibitor, single point] | 
50 | Cc1ccc(C)c(NC(=O)C(Cc2ccccc2)N2Cc3ccccc3C2=O)c1 (stereo not given) | inconclusive: 29.1 µM [inhibitor, single point] | 
51 | O=C(NCCS(=O)(=O)N1CCN(c2ccc(F)cc2)CC1)c1cc(=O)c2ccccc2o1 | inconclusive: 7.31 µM [inhibitor, partial curve] | 
52 | Cc1c(C(=O)OC/C(O)=C(\C#N)c2nc3ccccc3[nH]2)oc2ccccc12 |  | inactive: -20.4%
53 | Cc1ccc(C2CC(=O)Nc3cc4c(cc32)OCCO4)s1 (stereo not given) | inconclusive: 20.6 µM [inhibitor, single point] | 
54 | O=C1C=C(OCCCl)CC(c2cccc(Cl)c2)O1 (stereo not given) |  | inactive: -24.8%
55 | COc1ccc(Oc2nnc(-c3ccc(C)cc3)c3ccccc23)cc1 | inconclusive: 23.1 µM [inhibitor, partial curve] | 
56 | COc1ccc(-c2n[nH]c(=S)n2/N=C/C=C\c2ccccc2OC)cc1 | active: 10.3 µM | 
57 | CCC(C)(C)C1CCc2[nH]nc(C(=O)NC3CCCCC3)c2C1 (stereo not given) | inconclusive: 9.2 µM [inhibitor, partial curve] | 
58 | CCOc1ccc(CNC(=O)CCC(=O)N2CCSc3ccccc32)cc1 | inconclusive: 18.4 µM [inhibitor, partial curve] and inconclusive: 29.1 µM [inhibitor, single point] | 
59 | COc1cc([C@@H]2c3cc4c(cc3[C@@H](O[C@@H]3O[C@H]5CO[C@@H](C)O[C@@H]5[C@@H](O)[C@H]3O)[C@@H]3COC(=O)[C@@H]23)OCO4)cc(OC)c1O | active: 0.133 µM | 
60 | CC(=O)Nc1ccc(C=NNc2ccc([N+](=O)[O-])cc2S(=O)(=O)Nc2ccccc2C(=O)O)cc1 |  | inactive: 0.114%
61 | O=C(CSc1nc2ccccc2c(=O)n1-c1ccccc1F)NC1CC1 | inconclusive: 11.6 µM [inhibitor, partial curve] | 
62 | C[C@@H]1CC[C@H](O)/C=C/C(=O)O[C@H](C)CC[C@H](O)/C=C/C(=O)O1 | active: 5.17 µM | 
63 | O=C(Nc1nnc(-c2ccc3c(c2)OCCO3)o1)c1ccc(Cc2ccccc2)cc1 | inconclusive: 29.1 µM [inhibitor, single point] | 
64 | CC(=O)c1cc(C#N)c(SCc2ccncc2)nc1C | inconclusive: 16.4 µM [inhibitor, single point] | 
65 | COC(=O)CCc1nc2cc(Cl)ccc2n(Cc2ccccc2)c1=O | inconclusive: 18.4 µM [inhibitor, partial curve] | 
66 | Cc1ccc2occ(CC(=O)N(Cc3ccc(N(C)C)cc3)C3CCS(=O)(=O)C3)c2c1 (stereo not given) | inconclusive: 16.4 µM [inhibitor, single point] | 
67 | OC(CSc1c(Cl)cccc1Cl)CN1CCN(c2ccccc2F)CC1 (stereo not given) | inconclusive: 12.6 µM [inhibitor, single point] | 
68 | CCc1nc(SCC(=O)Nc2ccc(OC)cc2[N+](=O)[O-])n[nH]1 |  | inactive: -4.03%
69 | Cc1ccc(Oc2nc(-c3ccccn3)nc3ccccc23)cc1 | active: 18.4 µM | 
70 | O=C(CCCn1c(=S)[nH]c2ccccc2c1=O)NCCSCc1ccccc1 | inconclusive: 14.6 µM [inhibitor, partial curve] | 
